About 14,000 (4.5%) of roughly 310,000 compounds showed an effect of 50% or more. Effects have a minus sign here. The list shows a part of the results.
molecular target: human ether-à-go-go-related gene (hERG) potassium channel (human, UniProt Q12809); experiment: primary screen, population patch clamp on CHO cells stably expressing hERG
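Also: peak tail current of the secondary pulse compared with the same well before compound.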

Chain of human ether-à-go-go-related gene (hERG) potassium channel (Q12809 whole entry, looked up): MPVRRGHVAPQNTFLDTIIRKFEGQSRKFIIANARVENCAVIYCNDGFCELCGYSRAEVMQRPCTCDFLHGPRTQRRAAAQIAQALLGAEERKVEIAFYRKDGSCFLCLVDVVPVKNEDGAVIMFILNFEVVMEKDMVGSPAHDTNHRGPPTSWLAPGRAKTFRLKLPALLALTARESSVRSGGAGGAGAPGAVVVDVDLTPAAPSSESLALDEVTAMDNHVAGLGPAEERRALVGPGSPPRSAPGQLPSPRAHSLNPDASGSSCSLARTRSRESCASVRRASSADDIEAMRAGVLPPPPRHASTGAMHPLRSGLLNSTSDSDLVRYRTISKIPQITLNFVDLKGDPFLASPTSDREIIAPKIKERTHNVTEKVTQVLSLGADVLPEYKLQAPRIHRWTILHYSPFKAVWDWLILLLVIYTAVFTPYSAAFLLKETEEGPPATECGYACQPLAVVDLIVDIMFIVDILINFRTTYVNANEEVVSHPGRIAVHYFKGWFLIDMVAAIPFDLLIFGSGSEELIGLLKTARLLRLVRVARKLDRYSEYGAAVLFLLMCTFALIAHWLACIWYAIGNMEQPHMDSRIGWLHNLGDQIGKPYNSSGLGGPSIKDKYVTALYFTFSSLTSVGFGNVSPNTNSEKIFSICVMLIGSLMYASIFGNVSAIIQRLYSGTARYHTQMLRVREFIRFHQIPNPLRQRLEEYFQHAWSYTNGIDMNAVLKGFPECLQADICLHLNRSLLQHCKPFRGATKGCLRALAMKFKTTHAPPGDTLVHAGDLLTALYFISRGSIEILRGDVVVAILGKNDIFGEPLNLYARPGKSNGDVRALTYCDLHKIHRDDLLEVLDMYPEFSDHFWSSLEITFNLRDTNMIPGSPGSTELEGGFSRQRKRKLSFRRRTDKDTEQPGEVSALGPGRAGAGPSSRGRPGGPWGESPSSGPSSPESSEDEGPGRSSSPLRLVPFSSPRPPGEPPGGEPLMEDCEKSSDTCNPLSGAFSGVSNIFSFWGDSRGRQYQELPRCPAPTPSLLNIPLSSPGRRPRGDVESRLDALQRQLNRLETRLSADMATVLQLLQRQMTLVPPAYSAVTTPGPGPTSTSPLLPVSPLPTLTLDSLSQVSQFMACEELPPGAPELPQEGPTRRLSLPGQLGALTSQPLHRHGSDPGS

Row | Structure (SMILES) | hERG current change (%, negative = inhibition) at 10uM [%]
1 | CC(C)(C)OC(=O)N[C@@H](COCc1ccccc1)C(=O)N[C@@H](CO)[C@H](O)[C@@H]1C[C@@H]1C(=O)NC1CCCCC1 | 11.4
2 | O=C(NC(Cc1ccc(O)cc1)C(=O)O)c1ccco1 (stereo not drawn) | 27.4
3 | Cc1ccc(S(=O)(=O)N2CCN(C)CC2)cc1[N+](=O)[O-] | -2.05
4 | O=C(CCCc1ccccc1)Nc1ccnn1C1CCN(Cc2ccccn2)CC1 | -15.2
5 | Cc1ccccc1NC(=O)Nc1ccc(C(F)(F)F)cc1 | 16.3
6 | CCCc1n[nH]c(=O)[nH]1 | 8.06
7 | COc1cc(NC(=O)C2CC3CCC2C3)c(OC)cc1Cl (stereo not drawn) | 5.77
8 | NCC(O)COc1ccc2c(c1)OCO2 (stereo not drawn) | 4.96
9 | CC(C)CN(C(=O)CN1CCc2ccccc21)c1c(N)n(CC(C)C)c(=O)[nH]c1=O | 16
10 | CN1CCN(S(=O)(=O)c2cccc(C(=O)Nc3cccc(S(N)(=O)=O)c3)c2)CC1 | 12.8
11 | CC1([N+](=O)[O-])COC2(OC1)C(=O)Nc1ccccc12 (stereo not drawn) | 14.7
12 | CC1=CCC(C(=O)O)C(C(=O)Nc2cccnc2)C1 (stereo not drawn) | 0.464
13 | O=C(Cn1cnc([N+](=O)[O-])n1)NCCO | 16.2
14 | COc1ccc(C2=NOC(C)(c3nnc(-c4ccncc4)o3)C2)cc1 (stereo not drawn) | 1.73
15 | O=C(OCc1c(F)cccc1Cl)c1cnc(Cl)c(Cl)c1 | 11.3
16 | Cc1nc2cc(-c3ccccc3)[nH]n2c(=O)c1C | 9.88
17 | COCCCn1c2nc3ccccc3nc2c2c(=O)n(Cc3cccs3)cnc21 | 2.83
18 | NC(=O)c1c(NC(=O)CSc2nnc(-c3ccccc3)n2CC2CCCO2)sc2c1CCC2 (stereo not drawn) | -21.9
19 | CC(=O)C(Cc1ccccc1)(Cc1ccccc1)C(C)=O | 5.19
20 | O=C(Cc1ccccc1)OCC(=O)N1CCN(S(=O)(=O)c2ccc(Cl)cc2)CC1 | -18.5
21 | COc1ccc(/C=C/C(=O)OCC(=O)Nc2ccc(Cl)cn2)cc1 | 11
22 | Br.CC(C)(C)c1cc(C2=CSC3=NCCN23)cc(C(C)(C)C)c1O | -76.2
23 | O=C(CNC(=O)c1cccs1)NCCc1ccco1 | 3.77

Row | Structure (SMILES) | hERG current change (%, negative = inhibition) at 10uM [%]
24 | Cc1cnc(C(=O)OCC(=O)NCc2ccc3c(c2)OCO3)cn1 | 8.44
25 | COc1ccc(CCN2C(=O)C(Oc3ccccc3C)C2c2ccc3c(c2)OCO3)cc1 (stereo not drawn) | -42.3
26 | C=CCOc1ccc(CC2C(=O)N(C)C(=O)N(C)C2=O)cc1 | 10.1
27 | COc1ccc(C2CN(C)CC2C(=O)c2ccc(C)cc2)cc1Cl (stereo not drawn) | -63
28 | CCOCCCNC(=O)C1CCN(S(=O)(=O)N(CC(C)C)CC(C)C)CC1 | 1.6
29 | Cc1ccc(CNC(=O)c2ccc(CS(=O)(=O)c3ccccc3)o2)cc1 | -8.29
30 | CCc1cccc(C)c1NC(=S)N1CCCC1C(=O)O (stereo not drawn) | 16.6
31 | CCOC(=O)C1CCN(C(=O)c2cc(S(=O)(=O)N3CCc4ccccc43)ccc2OC)CC1 | -60.3
32 | COc1ccc(S(=O)(=O)n2ccc(-c3cnc(-c4ccccc4)s3)n2)cc1 | 9.73
33 | O=C(NCC1CCCO1)C(=O)N/N=C\c1ccc2c(c1)OCO2 (stereo not drawn) | 2.44
34 | CCOC(=O)Cn1nc(C)c(NC(=O)c2cccc([N+](=O)[O-])c2)c1C | -11
35 | COc1ccc(CC(=O)NNC(=O)CSc2nnc(C)n2-c2ccccc2)cc1 | -6.68
36 | CNC(=O)c1ccsc1NC(=O)c1ccc(S(=O)(=O)N2CCCc3ccccc32)cc1 | 10.5
37 | O=C(NC1CC1)c1cc2ccccc2o1 | 8.73
38 | COC(=O)c1cc2nc(-c3ccc(OC)cc3)cc(C(F)(F)F)n2n1 | 10.5
39 | c1ccc2c(c1)ncc1cccn12 | 13
40 | COc1cccc(NC(=O)c2nc3nc(C)cc(C(F)F)n3n2)c1 | 4.23
41 | COc1cc(Br)c(C(C)NC(=O)c2cccc(Br)c2)cc1OC (stereo not drawn) | -14.4
42 | N#Cc1cc2c(nc1SCC(=O)N1CCCCC1)CCCCC2 | -20.1
43 | COc1ccc(Cl)cc1NC(=O)CN(C)C(=O)CCSc1ccc(C)cc1 | -5.05
44 | CC(C)C(NC(=O)c1c(F)cccc1F)C(=O)NC1CC(C)(C)NC(C)(C)C1 (stereo not drawn) | 16.4
45 | CCOC(=O)Nc1nc(-c2ccccc2)c(C(=O)c2ccccc2)s1 | 2.21
